{
  "source": "paper PMC4336329",
  "about": "(PLoS ONE, 2015)",
  "note": "Screen size: about 310,000 compounds; about 14,000 (4.5%) showed an effect of 50% or more. The effect is printed as a negative number. Some of the results follow.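 Note: peak tail current of the secondary pulse compared with the same well before compound.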",
  "data": [
    {"target": "human ether-à-go-go-related gene (hERG) potassium channel (human, UniProt Q12809)", "sequence (Q12809 whole entry, looked up)": "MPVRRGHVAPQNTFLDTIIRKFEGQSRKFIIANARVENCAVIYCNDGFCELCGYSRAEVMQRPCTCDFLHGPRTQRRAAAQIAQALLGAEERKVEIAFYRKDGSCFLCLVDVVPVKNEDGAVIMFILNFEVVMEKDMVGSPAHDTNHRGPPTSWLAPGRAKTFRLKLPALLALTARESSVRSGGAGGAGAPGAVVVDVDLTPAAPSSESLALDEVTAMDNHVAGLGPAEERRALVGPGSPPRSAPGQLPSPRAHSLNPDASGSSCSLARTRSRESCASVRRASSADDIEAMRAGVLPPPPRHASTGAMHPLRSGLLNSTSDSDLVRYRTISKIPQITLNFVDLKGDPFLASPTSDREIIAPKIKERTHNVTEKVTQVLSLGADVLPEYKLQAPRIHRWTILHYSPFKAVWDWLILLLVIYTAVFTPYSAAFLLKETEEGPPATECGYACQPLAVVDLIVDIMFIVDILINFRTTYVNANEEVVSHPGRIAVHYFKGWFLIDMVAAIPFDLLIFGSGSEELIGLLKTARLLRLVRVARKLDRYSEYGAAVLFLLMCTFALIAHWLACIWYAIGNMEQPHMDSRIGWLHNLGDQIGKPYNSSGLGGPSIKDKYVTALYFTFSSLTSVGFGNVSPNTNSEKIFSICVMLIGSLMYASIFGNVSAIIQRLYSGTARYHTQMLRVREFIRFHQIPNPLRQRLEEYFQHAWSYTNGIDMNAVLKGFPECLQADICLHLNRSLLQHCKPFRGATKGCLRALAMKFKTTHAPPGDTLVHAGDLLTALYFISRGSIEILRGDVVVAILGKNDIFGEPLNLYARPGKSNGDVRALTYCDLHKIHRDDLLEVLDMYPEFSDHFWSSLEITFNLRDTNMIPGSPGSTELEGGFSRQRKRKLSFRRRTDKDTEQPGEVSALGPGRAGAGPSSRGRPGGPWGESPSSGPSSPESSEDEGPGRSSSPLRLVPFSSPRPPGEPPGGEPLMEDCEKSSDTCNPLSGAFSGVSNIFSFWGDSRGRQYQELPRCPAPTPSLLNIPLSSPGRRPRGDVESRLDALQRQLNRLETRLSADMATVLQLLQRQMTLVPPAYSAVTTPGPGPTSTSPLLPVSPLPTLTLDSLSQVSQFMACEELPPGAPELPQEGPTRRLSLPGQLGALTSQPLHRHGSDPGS", "assay": "primary screen, population patch clamp on CHO cells stably expressing hERG", "units": {"hERG current change (%, negative = inhibition) at 10uM": "%"}, "values": [
      {"compound": "CCCN1CCN(S(=O)(=O)c2ccc3c(c2)OCCO3)CC1", "hERG current change (%, negative = inhibition) at 10uM": 3.25},
      {"compound": "N#Cc1ccc(-c2cccnc2)nc1SCc1ccc(Cl)cc1Cl", "hERG current change (%, negative = inhibition) at 10uM": 13.2},
      {"compound": "COCCCNCCOc1ccccc1-c1ccccc1.O=C(O)C(=O)O", "hERG current change (%, negative = inhibition) at 10uM": -9.67},
      {"compound": "CCN(CC)C(=O)C1CCN(S(=O)(=O)c2ccc3oc4ccccc4c3c2)CC1", "hERG current change (%, negative = inhibition) at 10uM": 16.4},
      {"compound": "NC(=O)COC(=O)CCCSc1nc2ccccc2s1", "hERG current change (%, negative = inhibition) at 10uM": 20},
      {"compound": "Cc1ccc(NC2=C(Cl)C(=O)OC2OC(=O)c2ccccc2)c(C)c1", "note": "(stereo not drawn)", "hERG current change (%, negative = inhibition) at 10uM": 2.44},
      {"compound": "CC(C)(C)CC(C)(C)NC(=O)c1ccc2snnc2c1", "hERG current change (%, negative = inhibition) at 10uM": -13.6},
      {"compound": "COc1ccc(C(=O)Nc2c(C)ccc3nsnc23)cc1[N+](=O)[O-]", "hERG current change (%, negative = inhibition) at 10uM": -3.17},
      {"compound": "O=C(CSc1ncc(-c2ccc(F)cc2)n1Cc1ccco1)Nc1nccs1", "hERG current change (%, negative = inhibition) at 10uM": 3.33},
      {"compound": "Cc1onc(-c2ccccc2Cl)c1C(=O)N1CCN(S(=O)(=O)c2ccc(F)c(F)c2)CC1", "hERG current change (%, negative = inhibition) at 10uM": 10.4},
      {"compound": "CCCCCn1c(=O)[nH]c2cc(C(=O)O)ccc2c1=O", "hERG current change (%, negative = inhibition) at 10uM": 21.4},
      {"compound": "COc1ccccc1NS(=O)(=O)c1cc(-c2cc(C)no2)ccc1OC", "hERG current change (%, negative = inhibition) at 10uM": -5.52},
      {"compound": "Cc1ccnc(NC(=O)c2c(-c3ccccc3Cl)noc2C)c1", "hERG current change (%, negative = inhibition) at 10uM": 6.04},
      {"compound": "Cc1ccc(NC(=O)Cn2ccc(=O)[nH]c2=O)cc1", "hERG current change (%, negative = inhibition) at 10uM": 28.4},
      {"compound": "CCOc1ccc(CCNC(=O)c2ccc(C)c(NC3=NC4CS(=O)(=O)CC4S3)c2)cc1", "note": "(stereo not drawn)", "hERG current change (%, negative = inhibition) at 10uM": 24.4},
      {"compound": "Cn1ncc2c(Nc3cccc(C(=O)O)c3)ncnc21", "hERG current change (%, negative = inhibition) at 10uM": 6.66},
      {"compound": "COc1ccc(NC(=O)CSc2nnnn2C)cc1S(=O)(=O)N1CCCCC1", "hERG current change (%, negative = inhibition) at 10uM": 2.56},
      {"compound": "Cc1ccccc1NC(=O)CSc1nc2ccccc2o1", "hERG current change (%, negative = inhibition) at 10uM": -3.95},
      {"compound": "CN1CCN(c2ccc(S(=O)(=O)N3CCCCC3)cc2[N+](=O)[O-])CC1", "hERG current change (%, negative = inhibition) at 10uM": -48},
      {"compound": "Cc1ccc(OCc2cc(C(=O)Nc3ccccc3)oc2C)cc1", "hERG current change (%, negative = inhibition) at 10uM": 8.38},
      {"compound": "O=S(=O)(c1ccccc1)N(Cc1ccccn1)Cc1ccccn1", "hERG current change (%, negative = inhibition) at 10uM": 12.8},
      {"compound": "O=C(NCCCN1CCCC1=O)Nc1cc(Cl)ccc1Cl", "hERG current change (%, negative = inhibition) at 10uM": 10.8},
      {"compound": "O=C(/C=C/c1ccc(Cl)cc1Cl)NCCN1CCOCC1", "hERG current change (%, negative = inhibition) at 10uM": -28.7},
      {"compound": "Cc1ccc(CN2CC(C(=O)NCCC3=CCCCC3)CC2=O)cc1", "note": "(stereo not drawn)", "hERG current change (%, negative = inhibition) at 10uM": -19.6},
      {"compound": "CCCCNS(=O)(=O)c1ccc2nc(-c3cccnc3)cc(C(=O)NCC(OC)OC)c2c1", "hERG current change (%, negative = inhibition) at 10uM": -2.03},
      {"compound": "O=c1c2ccc(Cl)cc2nc(-c2cccc(C(F)(F)F)c2)n1O", "hERG current change (%, negative = inhibition) at 10uM": -4.56},
      {"compound": "COc1cccc(C(=O)C2CCCN(Cc3cn(C)nc3-c3ccccc3)C2)c1", "note": "(stereo not drawn)", "hERG current change (%, negative = inhibition) at 10uM": -68.8},
      {"compound": "COc1cccc2cc(C(=O)Nc3ccccc3C)/c(=N/NS(=O)(=O)c3ccccc3)oc12", "hERG current change (%, negative = inhibition) at 10uM": 18.2},
      {"compound": "CCC(CO)NCc1ccc(OCC(=O)Nc2cccc(C(F)(F)F)c2)c(OC)c1", "note": "(stereo not drawn)", "hERG current change (%, negative = inhibition) at 10uM": -43.6},
      {"compound": "COc1ccc(S(=O)(=O)N2CCC(N3CCCC3)CC2)cc1", "hERG current change (%, negative = inhibition) at 10uM": 22.3},
      {"compound": "CC/C(=N\\NC(=O)Nc1ccccc1)c1ccccc1", "hERG current change (%, negative = inhibition) at 10uM": -9.51},
      {"compound": "O=C(NCCCN1CCOCC1)c1ccc(-c2ccc(Cl)cc2)o1", "hERG current change (%, negative = inhibition) at 10uM": -55.1},
      {"compound": "Cc1ccc(Cl)cc1Nc1nc(-c2sc(NC(=O)c3ccco3)nc2C)cs1", "hERG current change (%, negative = inhibition) at 10uM": 3.48},
      {"compound": "CCCCn1c(C(C)NC(=O)COC)nc2ccccc21", "note": "(stereo not drawn)", "hERG current change (%, negative = inhibition) at 10uM": -23.5},
      {"compound": "Cc1cccc(Oc2cnn(C(C)(C)C)c(=O)c2Cl)c1", "hERG current change (%, negative = inhibition) at 10uM": -10},
      {"compound": "CCCCCCN(CCCCCC)C(=O)Cc1c(-c2ccc(F)cc2)[nH]c2ccccc12", "hERG current change (%, negative = inhibition) at 10uM": 20},
      {"compound": "Cc1cc(-c2csc(N)n2)c(C)n1-c1ccccc1", "hERG current change (%, negative = inhibition) at 10uM": -9.56},
      {"compound": "O=C(CNC(=O)c1ccco1)OCc1ccc(Br)cc1", "hERG current change (%, negative = inhibition) at 10uM": 2.8},
      {"compound": "O=C(CN1C(=O)c2ccccc2C1=O)Nc1cccc(Cl)c1", "hERG current change (%, negative = inhibition) at 10uM": 4.39},
      {"compound": "COc1ccc(-n2nnnc2-c2cnc3cc4c(cc3c2C)OCO4)cc1", "hERG current change (%, negative = inhibition) at 10uM": -5.1},
      {"compound": "COc1ccc(-c2nn(-c3ccccc3)cc2/C=N/N=C(N)N)cc1OC", "hERG current change (%, negative = inhibition) at 10uM": -27.8},
      {"compound": "COc1c(O)cccc1/C=N/NC(=O)Cn1ccnc1C", "hERG current change (%, negative = inhibition) at 10uM": 8.88},
      {"compound": "Cc1ccc(NC(=O)COC(=O)c2cc(Cl)ccc2[N+](=O)[O-])c(C)c1", "hERG current change (%, negative = inhibition) at 10uM": 1.37},
      {"compound": "Cc1ccc(CSc2ncnc3ccccc23)cc1", "hERG current change (%, negative = inhibition) at 10uM": 11.3},
      {"compound": "CCn1c(C(=O)N2CCc3ccccc3C2)cc2oc3ccccc3c21", "hERG current change (%, negative = inhibition) at 10uM": 16},
      {"compound": "CCCc1cc(=O)n2[nH]c(NCc3cccs3)nc2n1", "hERG current change (%, negative = inhibition) at 10uM": 11.5},
      {"compound": "CCCCOC(=O)C1=C(C)Nc2ncnn2C1c1cc(OC)ccc1OC", "note": "(stereo not drawn)", "hERG current change (%, negative = inhibition) at 10uM": -13.9},
      {"compound": "COc1ccc(CNC(=O)c2nn(C)c3c2CS(=O)(=O)c2ccccc2-3)cc1", "hERG current change (%, negative = inhibition) at 10uM": -24.5},
      {"compound": "COc1cc2nc(N(CCCN(C)C)C(=O)c3ccc(S(=O)(=O)N4CCc5ccccc5C4)cc3)sc2cc1OC.Cl", "hERG current change (%, negative = inhibition) at 10uM": -9.41},
      {"compound": "CN(CC(=O)Nc1ccccc1[N+](=O)[O-])Cc1ccc(Br)cc1", "hERG current change (%, negative = inhibition) at 10uM": 6.13},
      {"compound": "COC(=O)c1ccccc1NC(=O)COC(=O)CO/N=C(\\C)c1ccc2c(c1)OCO2", "hERG current change (%, negative = inhibition) at 10uM": 21},
      {"compound": "c1coc(-c2nc3nc4ccccc4nc3n2CC2CCCO2)c1", "note": "(stereo not drawn)", "hERG current change (%, negative = inhibition) at 10uM": -21.1},
      {"compound": "CCN(CCCNC(=O)CNC(=O)Cn1cnc2ccccc2c1=O)c1cccc(C)c1", "hERG current change (%, negative = inhibition) at 10uM": -4.04},
      {"compound": "C=CCN=C1CC(C)(C)CC(=O)/C1=C(/O)CCC(=O)OC", "hERG current change (%, negative = inhibition) at 10uM": 16.9},
      {"compound": "CC1(C)CC(NC(=O)c2cccc(Cl)c2)CC(C)(C)N1", "hERG current change (%, negative = inhibition) at 10uM": 6.71},
      {"compound": "O=C(/C=C/c1ccccc1)Nc1cccc(S(=O)(=O)Nc2ccccc2F)c1", "hERG current change (%, negative = inhibition) at 10uM": 26.3},
      {"compound": "CC(C)c1nnc(NC(=O)C2CCCCC2)s1", "hERG current change (%, negative = inhibition) at 10uM": -2.05}
    ]}
  ]
}
